Measurements reported in ChEMBL document CHEMBL4888484, “Replenishing the malaria drug discovery pipeline: Screening and hit evaluation of the MMV Hit Generation Library 1 (HGL1) against asexual blood stage Plasmodium falciparum ,using a nano luciferase reporter read-out” (2022).
About 410 (8.5%) of roughly 4,800 compounds showed an effect of 50% or more. Some of the results follow.

What follows are compounds tested on Plasmodium falciparum (assay: Confirmatory screen in NF54 pLDH assay, in single point, at 2uM, 72h). Details: timepoint 72 hour.
Format: functional, Erythrocyte

Structure (SMILES) | % Inhibition [%]
CCn1nc(C)c2c(C(=O)Nc3cc(C)ccc3C)cc(-c3ccc(C)cc3)nc21 | 7
COc1ccc(OC)c(CN2C(=O)c3cc4c(OC)ccc(OC)c4n3C[C@]2(C(=O)NC2CCCCCC2)c2ccccc2)c1 | 15
O=C(NCc1cccs1)c1cn[nH]c1-c1ccccc1 | 0
Cn1ccc(NC(=O)c2n[nH]c3ccccc23)n1 | -15
COc1ccc(N2CCN(c3nccn4nc(-c5ccc(OC)c(OC)c5)cc34)CC2)cc1 | -12
Cc1ccc(CNc2ncnc3c2cnn3-c2ccccn2)cc1 | 12
O=C(c1nc(-c2cccs2)cs1)N1CCN(c2ccccc2)CC1 | -22
Cc1cncc(C(=O)N2CC(n3cnnc3C)C2)c1 | -13
O=C(NC1CC1)c1cn(CC2(O)CCN(Cc3ccccc3)CC2)nn1 | 16
Cc1cc(C)c(CC(=O)Nc2cnn(C)c2C2CC2)s1 | 9
CC(C)(C)NC1=Nc2ccccc2N[C@]12CCCN(C(=O)c1ccc3[nH]cnc3c1)C2 | -20
Cc1cccc2c(-c3cc(N)nc(N)n3)c[nH]c12 | 100
CCN1CCCCc2cc(C(=O)N[C@@H](C)COC)sc21 | -3
CCc1nc(C(=O)[C@H](C#N)C(=O)Nc2cccc(C)c2)co1 | 0
Cc1nn(Cc2cccc(F)c2)c(C)c1NC(=O)c1cccc(COc2ccc(Br)cc2)c1 | 16
Cc1cc(C(=O)N2CCC[C@H]2c2nc(C3CCOCC3)no2)n(C)n1 | 12
CCc1c(NC(=O)[C@@H](C)C2CC2)nnn1CCc1ccc(OC)cc1 | 12
CN1CCN(C(=O)[C@H](C(=O)c2ccccc2)n2cc(Cl)ccc2=O)CC1 | -20
Cc1cnc(NC(=O)C(=O)N2CCC[C@H](n3cccn3)C2)s1 | 4
CCCC(C)(C)N(Cc1cccs1)Cc1nnc2n1CCOC2 | 10
Cc1nc(C)c(CN2C(=O)C3CCCCC3C2=O)s1 (stereo unspecified) | -19
Cc1cc(=O)c(CO)nn1CCCc1ccccc1 | 11
O=C(OCC1OCC(n2cc(C(F)(F)F)c(=O)[nH]c2=O)O1)c1ccccc1 (stereo unspecified) | 6
O=C(CCC(=O)N1CCCC1)NCc1ccc2c(c1)OCO2 | -11
Cc1cc(N2CCn3c(nc4ccccc43)C2)ccc1NC(=O)C1CCCCC1 | 14
COCc1ncc(C)n1CCNC(=O)c1cc(-c2cc(C)ccc2C)n[nH]1 | 3

Structure (SMILES) | % Inhibition [%]
CCc1cc(C(=O)N2CCC[C@H](C)C2)c2c(C3CC3)nn(-c3ccccc3)c2n1 | 4
CC1CCCN(c2nc(O)c3c(n2)NC(=O)CC3c2cccc(C(F)(F)F)c2)C1 (stereo unspecified) | 9
COc1ccccc1Cn1c(=O)c2sccc2n(CC(=O)NCCc2ccc(Cl)cc2)c1=O | 8
CC(C)C[C@@H]1N[C@H](C(=O)NCCN(C)C)Cc2c[nH]c3cccc1c23 | -19
Cc1cc(-c2ccco2)cc(Cl)c1N | 11
Cn1cc(Oc2ccccc2C(=O)Nc2cccnc2O)cn1 | 4
COc1cccc(C(=O)c2c[nH]c(C(=O)NCc3cccc(C(F)(F)F)c3)c2)c1 | 6
O=C(NCc1ccc(O)nc1)C1(Cc2cccc(Cl)c2)CCCC1 | 6
CC(C)N(CCCNC(=O)c1cnn2c3c(cnc12)CCCCCC3)Cc1ccccc1 | 9
Cc1nc(N2CCOCC2)cc(N2CCN(C(=O)c3cccc(Br)c3)CC2)n1 | 7
Cn1nc(C(=O)N2CCCCC[C@H]2C2CCCCC2)ccc1=O | -7
Cc1cccc(NC(=O)Cn2c(C(F)(F)F)nc3cc4c(cc32)OCCCO4)c1C | 12
NC(=O)C1CCN(CCC(=O)N2CCc3cc4ccc3[C@@H]2c2cccc(c2)OCCCNC(=O)c2cc(ccc2O)O4)CC1 | 93
CC(C)OC[C@@H](O)CN1CC(C2CCC2)C1 | -19
Cc1cccc(-n2c(-c3sc(Nc4ccccc4)nc3-c3ccccc3)nc3ccccc3c2=O)c1 | 11
CC(C)(C)CCS(=O)(=O)N1CCC[C@H]1C1CCCCC1 | 8
CCOC(=O)c1c(CN2CCCC2)n(C)c2cc(-c3cccnc3)c(O)c(Cn3ccnc3)c12 | 68
COc1c(S(=O)(=O)c2ccc(C#N)cc2)cnc2ccc(Cl)cc12 | -20
O=C(CN1N=C(C(=O)Nc2ccccc2)CCC1=O)Nc1ccc(OC(F)(F)F)cc1 | -8
COc1ccc(Oc2nccc(-c3ccc(F)cc3)c2C#N)cc1 | 15
Cc1cc(=O)[nH]c(-n2nc(C3CC3)cc2NC(=O)C(C)(C)Oc2ccc(Cl)cc2)n1 | 82
COc1ccc2cc(S(=O)(=O)n3ccc(C)n3)ccc2c1 | 0
CC(=O)NCCNC(=O)Nc1ccccc1N(C)C1CCCC1 | -5
Cc1ccc(NC(=O)CC(=O)O)c(C)c1 | -5
Cn1c(=O)c2c(c(-c3ccccc3)cn2C)n(CC(=O)Nc2cc(Cl)cc(Cl)c2)c1=O | -13
CCc1sc(N(C(=O)CCc2ccccc2)c2ccc(C)cc2C)nc1-c1ccc(OC)cc1 | 9

Structure (SMILES) | % Inhibition [%]
CN(c1ncc(S(=O)(=O)c2ccccc2)c(N)n1)C1CCCCC1 | -19
CCC(=O)Nc1nc2ccc(NS(=O)(=O)Cc3ccccc3)cc2s1 | 3
NC(=O)NOCc1cccc(Cl)c1 | 6
O=C(Nc1cc(N2CCCS2(=O)=O)ccc1O)c1cccc(Oc2cccc(C(F)(F)F)c2)c1 | 97
CC(C)c1cc(=O)[nH]c(-n2nc(C3CC3)cc2NC(=O)c2ccc(F)cc2)n1 | 89
Nc1ccc2c(c1)Oc1cc(N)ccc1OCCOCCOCCO2 | -8
Cc1cc(Br)c2c(c1)C(O)(N1CCCC(C)C1)C(=O)N2 (stereo unspecified) | 9
COc1cc2c(cc1OC)[C@@H](NC(=O)c1cnc(C3(C)OCCO3)s1)CCCC2 | 49
O=C(Nc1ncc(Cc2ccc(Cl)c(C(F)(F)F)c2)s1)c1ccc2nnsc2c1 | 10
O=C(Nc1cnc(-n2ccnc2)nc1)C(c1ccccc1)c1ccccc1 | 29
Cc1cccc(CNC(=O)c2ccc3c(c2)N(C)[C@@H]2CCCCCN2C3=O)c1 | 4
Cc1ccc(C2=NC3(CCCC3)NC2=O)cc1 | 17
COc1cccc(-c2ccc(=O)n(CCC(=O)N3CCN(Cc4ccc5c(c4)OCO5)CC3)n2)c1 | 14
C[C@@H](C1CC1)N(C1CC1)S(=O)(=O)c1cccc2c1N=S=N2 | 6
O=C(c1cscn1)N1CC[C@H](Oc2cccc(Cl)c2)C1 | 39
CN1CCN(C(=O)C[C@@H]2CCN3C[C@@H]2/C=C\COc2ccccc2CN(C(=O)CC(C)(C)C)CC3=O)CC1 | 9
CCCc1noc([C@H]2CC(=O)N(c3ccccc3C)C2)n1 | 8
Cc1nnc(C(C)NC(Cc2ccccc2)c2sccc2C)s1 (stereo unspecified) | -18
O=C(Cn1ccnc1)N1CCCCCC1CC(O)c1ccccc1 (stereo unspecified) | 10
Cc1ccc(CNC(=O)c2nc(-c3ccncc3)cs2)o1 | 7
O=C(Cc1ccc(N(Cc2cccc(F)c2)C(=O)c2cccc(F)c2)cc1)NCCN1CCCCC1 | 29
O=C1CCC[C@H](O)N1Cc1ccc(F)cc1 | 8
COc1ccc(N2CCN(C(=O)CCn3nc(-c4cccc(Cl)c4)ccc3=O)CC2)cc1 | -21
CCN1CN(C(=O)Cc2c[nH]c3cc(C)ccc23)CC1=O | -15
CC(=O)N[C@H]1[C@H](c2ccccc2)N(CCCc2ccccc2)CC[C@@]1(C)O | 4
O=C1c2cc3ccccc3c(-c3ccccc3)c2C(=O)N1c1ccccc1 | -16

Structure (SMILES) | % Inhibition [%]
CC(C(=O)Nc1ncccn1)N1CCCC1Cn1cccn1 (stereo unspecified) | -8
COc1ccc2c(c1)CN(C(=O)[C@H]1OCCO[C@H]1C)CCO2 | -4
O=C1c2cc3ccccc3n2C[C@](C(=O)NC2CCCCCCC2)(c2ccccc2)N1Cc1cccc(Cl)c1 | -5
CCn1nc(C(=O)N(C2CCCCC2)C2CC2)c2ccccc2c1=O | -7
Cc1csc(S(=O)(=O)N2CC[C@H](n3cccn3)C2)c1 | -13
Cc1nccc(O[C@H]2CCCN(C(=O)CN3CCN(c4ccccc4)C3=O)C2)n1 | 9
Fc1ccc(-c2csc(N3CCC[C@H](c4cn[nH]c4)C3)n2)cc1 | 11
COc1ccc(Br)c(C#N)c1C | 10
CCC1C(C(=O)NCCN(C)CCOC)CCN1C(=O)OC(C)(C)C (stereo unspecified) | 1
CC(CC(=O)O)CC(=O)N1CC(C)CC(C)C1 (stereo unspecified) | 14
COc1cccc(CNC(=O)Cn2c(=O)n(Cc3cccc(OC)c3)c(=O)c3sccc32)c1 | 12
COc1ccc(C2=Nc3ccc(S(=O)(=O)N4CCOCC4)cc3S(=O)(=O)N2)cc1 | -5
CCS(=O)(=O)Nc1ccc(Br)cc1Cl | -1
COc1ccnc(CN2CC[C@](C)(O)[C@H](O)C2)c1 | 6
O=C(Cn1c(=O)n(Cc2ccc3c(c2)OCO3)c(=O)c2sccc21)Nc1ccc(Cl)cc1F | 13
CC[C@@H](C(=O)NCc1ccc(OC(C)C)cc1)n1ccc2cc(S(=O)(=O)N3CCCCC3)ccc21 | 10
Nc1cccnc1N1CCc2ccccc21 | 12
Cc1cnccc1NCCNCc1cccc(O)c1Cl | 101
CCc1ccc(NC(=O)[C@H](C)N2CCC(NS(=O)(=O)c3cccs3)CC2)cc1 | 77
COc1c(Cl)cc(Cl)cc1C#N | -17
CN(Cc1cccnc1)c1ccc(S(=O)(=O)C(F)F)cc1 | 0
Cc1n[nH]cc1CNC1CC2CCC1C2 (stereo unspecified) | 2
CCO[C@@]1(c2ccccc2)NC(=O)c2cc3c(cc21)OCCO3 | -18
